Source: article PMC10726135
This is one part of the list. At the low end of the ranking the order means little. The protein was read in a cell extract, so binding may be indirect.

The sequences below were run against T1, HNF4alpha8 (COS-7 nuclear extract) (UniProt P41235-5) (assay: protein-binding microarray). Settings: COS-7 nuclear extract on double-stranded Agilent 4x180k PBM; binding buffer, salt, pH and temperature not given; high values mean tight binding; double strand, one strand shown; sequences stand for … in …GCCTAGGGAGATTAGAGTATCGGTCGA.
T1 sequence: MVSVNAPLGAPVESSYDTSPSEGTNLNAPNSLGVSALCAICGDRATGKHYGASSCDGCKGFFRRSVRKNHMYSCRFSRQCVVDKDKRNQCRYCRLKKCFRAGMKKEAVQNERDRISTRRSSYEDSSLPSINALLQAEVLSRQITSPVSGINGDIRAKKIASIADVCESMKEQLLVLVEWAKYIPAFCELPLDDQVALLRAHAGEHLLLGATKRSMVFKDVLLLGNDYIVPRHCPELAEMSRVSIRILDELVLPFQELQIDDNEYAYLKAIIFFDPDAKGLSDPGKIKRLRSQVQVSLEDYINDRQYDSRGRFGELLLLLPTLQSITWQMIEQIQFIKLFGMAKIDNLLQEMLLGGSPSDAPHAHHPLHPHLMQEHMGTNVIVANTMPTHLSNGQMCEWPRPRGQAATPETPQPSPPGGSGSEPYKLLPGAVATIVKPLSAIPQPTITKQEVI

| Sequence | binding signal (log2 normalized intensity) |
| --- | --- |
| CCACATGAATACACATAATGTGCTTATCAG | -1.15 |
| ACAGCAAAGATGAATCATGTAACCAAAATG | -1.33 |
| GGGTGCAGGGAGAAGGCAAAAATGCAGGCA | -1.26 |
| GAGATCTAAGCGATAAGGAGGAAGGACACT | -1.31 |
| TGGGAATGCCCTTTATACAGGCATGGAAGT | 2.16 |
| CAAAGGTCACGTTCCAGCTGCTTCAGGAGC | 3.14 |
| TTGATCTTTGTGTACAAAGCCATCAGCACT | 0.622 |
| CCGAGCAGGACGCTACCCGCTTGGCGTAGG | -1.37 |
| TTCTGAGCAAATATTTGGGGTATGTGCTCA | 0.925 |
| AACCAAGATAGTGACGGAGGTGACCTTTGG | 7.34 |
| AAAGCCCTCAAATACTCTGAGTAAACACAG | -1.39 |
| ATTTATTTTGTGTGCTAGATACTGGAGATA | 1.02 |
| AACTCCCAGTCTGTTATCAGAGCTGGAGGA | -1.25 |
| GGCGGCCGCGCGCAGGGCGGACAGCGCCGC | -1.31 |
| ATCTCTTTTGTGTTAGAGGGTGGTGGGTGA | 1.94 |
| ACACAGATCATATCATTTATTTGCTTAAAA | -1.11 |
| ATTTGCCACCAATGCCTCTATGTAGCAATC | -1.31 |
| AAAAATAGGAGACTGTCTTAGGAAAGAACA | -1.26 |
| CAAGGACACTGAAAGGCATTCTGCCAACAC | -1.27 |
| TGGTATGCTAGAGTACTTGGACTTTAACCT | 9.56 |
| AAGCCTTATCACTGTTTGGCCTATGGGAAA | 0.766 |
| TAAAGTTCAGCTTCTCTTGTTTGTGTAACT | 1.18 |
| AAAGAACAAACTTCCCCTGCAGCTGATCAT | -0.756 |
| AAGGTTGGTCTTAGGACCACATGAGTAAAC | 3.54e-05 |

| Sequence | binding signal (log2 normalized intensity) |
| --- | --- |
| TGCAGCGGCATTCTCTGGTCTGCGGTTGTG | 0.807 |
| TTGCTTAAGCATAGCAAAAGTGACCTTTGC | 9.23 |
| CACCCCAGCAAACAGGTCCTGCTGGTTTGC | 0.613 |
| TTTCTGAGCAGGATGTCCAGAATGAGTGTG | 0.0751 |
| GTGGTGAGGAAAAGGAGGAGTTTGACCCCA | 7.27 |
| TCAGTGAAGGCCTCTGATGATTCTAAAGGC | -1.22 |
| TCCCTAACCCTTCAAGGGCCACTCAGTTGA | -1.29 |
| ACTGGGTCTTAATAAGATAATAAGTGACCC | 4.31 |
| TCCTTGATTAAACTTTAGTCAGATTCCTCT | 1.65 |
| TCCAAAGGTCACAGTAGGGAAAGTGGGGGG | 2.52 |
| CCTCTCTCTCCTGGCCTCTGAGATTCGGTG | 0.654 |
| AGGGCCTAGAAGAGTTCCTGACAATTGGCC | 0.971 |
| TGAGGCTAAGAGGTGAACACATTCCTCATT | -1.43 |
| GACCAGCATTCTTTCTGCTGCAATTTAAGC | -1.1 |
| TGCTCTCTCTCTTTTTCTGAGCCTGGGTCA | 2.19 |
| TTCTCATCTTATCTAGTTTCCTAGCTCACT | -1.37 |
| GCAAGCCAGTCAGAATCTCTCTGTAGGTAA | -1.39 |
| ACAGTGATTGTCACAAGACTGTTATCACAG | 0.519 |
| TCTGGGTTAAACGTGCAGCAATAGGTCAGA | 2.04 |
| TGACCTTTGAAACTTACATTCTAAAGCAGA | 5.15 |
| TACCATGTGTTGGCACTTTGGACTTGAGAA | 5.4 |
| ACAAGGTGTGTTTGAGCAGGGGTGAACAAA | -0.257 |
| GTGTCAGTCCAGAGTTTGTGGCTCCATACT | 0.463 |
| CAACTAGGCCTGAAATTTGGCCTGCTGAGC | -0.424 |

| Sequence | binding signal (log2 normalized intensity) |
| --- | --- |
| ACTTTGCCCTTTTTTTCTCTCCCCTTTTAA | 2.63 |
| ATAACACTATTTGATGAGTCTTAGAGTCCA | 2.77 |
| AATATGTGGACTTCAAAGGTACTTATCAGA | 1.07 |
| ACCGTCTTGTGGATCCTTGGAGGACCTTGG | 2.42 |
| CCCCCTATGTAAAGGCCTTTGAAGCTTGAA | 2.64 |
| CCTCAAATTACAAAAGGAGTTGGGGGACAG | -1.44 |
| CCACATCGAAGGCCAAGGGATTTCAGTGCC | -1.26 |
| AAGGAGCTTGGGAAGACAGATGTGATATTC | 0.00435 |
| CTTCTCACCACCTCTGCTGCGATCACCCAG | -0.978 |
| GCATATCTCTAGATCTCAGTTGGTCCAAGG | 1.89 |
| TTATCTTCACATTCCATCATCACGGTGGAC | 1.71 |
| CGGGGATGGCAGACGGGGCTCTCAGAATCT | -1.32 |
| CAGCTGGGGCCACCTTTTCAGCTTCCTCCT | -1.23 |
| GCTCCTGTTCCTTTGTTACACTGGCTGCCC | 2.08 |
| CCTTTGACTCATTATCCCCCGCAACTATTT | 3.15 |
| TAAGCACTTGTGGTATGTTTGGATTGGGCA | 1.52 |
| ATGACTCTCTTATAGGTGTTTATAAAGTTG | 1.68 |
| GACTAGGCACAGGAACCTGTTTTACAGGAC | -1.2 |
| TAGACAAACAGCAATAGCAAGACTGCAAAA | -1.47 |
| CTTCATAGTGGTTTGACTTTTTTTTTTTTT | 2.38 |
| CATCCACATGGGCGTCACCAACCAGCCCTC | 3.3 |
| GACAGATGAAAGCATATTTGGCCACATCCT | -1.32 |
| GTTCTGCAGACTCCCTAGAAGAGTGAACCT | 2.52 |
| TGGATCAGCACTGGGTGGGGATAAGAAAAG | -1.28 |

| Sequence | binding signal (log2 normalized intensity) |
| --- | --- |
| GCTGCATGTCATGACCTTCATCAATCAGCC | 1.75 |
| GATAAGAGAAGTTGCTCTTTACACCATTGC | 1.65 |
| GGTGAGATAAGAAGACTCCAGGGGACTGCC | -1.27 |
| GCTGCGCGGGGCCTCCCAGTGGTATGCCTC | -1.28 |
| CTTTGGACTTTCAAAAGTTAAGGTCAAGAC | 2.78 |
| ATAAAACCAGTCAGGCAAACAACAGGCATC | -1.31 |
| GGAAAAGATTAGATTGCTCAGAGGCACAGT | -1.3 |
| GAGCCCTTAGGGTCAATGGGACATTGCATT | 2.22 |
| TTCCCGCCCAAGGAGACAGGCTTTGAGCAT | 0.0316 |
| AAGGCAGAGCACTAAATCTCTCCTAGAGAA | -1.37 |
| TTGGTTGTTCTGTTTAACAGAGATTTGCAG | 1 |
| CACTGACTAAAGCAAGTCAGATGGCCAAAG | -1.27 |
| CACAGAAGTCTTTCCCTGCCAGTTCCATGT | 1.23 |
| ACATAGCAGGCATACCAGGCAGAGGGTTAA | -1.19 |
| TTGCGGATAGATATGTTGAAGTGACTAAAT | -1.17 |
| ATAATGCATACGCTAGCTTTCTGGTCTTTG | 0.696 |
| ACATTCTTTCTGCATCGCAGTCGCCTGCAA | -1.33 |
| CTCTCCCAGCGGGTCATTAATTCCCAGGAA | 0.386 |
| TTTTACAATGCAAACCTAACAGGCTGTAAG | -1.4 |
| GATAATAGTGGCTGAAAGTACTGGCCAGAT | 0.216 |
| GCTTTTGTCATGACCTTCGCTCTTGATGGG | 4.62 |
